From the supplement of paper PMC7580552
Where a name gives a salt, the structure may show the parent alone. The list shows a part of the results. Single values are uncertain, as repeats are few or missing.

These compounds were tested on Escherichia coli W3110 (assay: planktonic growth (OD600) relative to untreated control; higher = more growth). Details: 10 µM; 20-24 h; 30 °C; TB.
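Note: stationary (unshaken) cultures in 96-well plates, started at OD600 0.05 from mid-exponential cells, with compounds supplied from DMSO stocks.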

| SMILES | planktonic growth [%] |
| --- | --- |
| C[C@@H]1C[C@H]2[C@@H]3CCC4=CC(=O)C=C[C@]4(C)[C@@]3(Cl)[C@@H](O)C[C@]2(C)[C@@]1(OC(=O)c1ccco1)C(=O)CCl [Mometasone furoate] | 98 |
| CCOc1ccc2nc(S(N)(=O)=O)sc2c1 [Ethoxzolamide] | 89 |
| Nc1ncnc2c1ncn2C1OC(COP(=O)(O)O)C(O)C1O (centres undefined) [Adenosine 5'-monophosphate monohydrate] | 100 |
| CCCCc1ccc2[nH]c(NC(=O)OC)nc2c1 [Parbendazole] | 98 |
| CN1CCN(C(c2ccccc2)c2ccccc2)CC1 [Cyclizine hydrochloride] | 95 |
| CN(c1nccc(=O)[nH]1)C1CCN(c2nc3ccccc3n2Cc2ccc(F)cc2)CC1 [Mizolastine] | 101 |
| O=C(O)c1ccccc1C(=O)Nc1ccc(S(=O)(=O)Nc2nccs2)cc1 [Phthalylsulfathiazole] | 90 |
| OCCN(CCO)c1nc(N2CCCCC2)c2nc(N(CCO)CCO)nc(N3CCCCC3)c2n1 [Dipyridamole] | 99 |
| Nc1c2ccccc2nc2ccccc12 [Aminacrine] | 130 |
| CN1CCC(=C2c3ccccc3Sc3ccccc32)CC1 [Pimethixene maleate] | 92 |
| N[C@@H](Cc1cc(I)c(Oc2ccc(O)c(I)c2)c(I)c1)C(=O)O [Liothyronine] | 89 |
| COC(=O)C1=C(C#N)NC(C)=C(C(=O)OC(C)C)C1c1cccc([N+](=O)[O-])c1 (centres undefined) [Nilvadipine] | 106 |
| CC1CC(OC(=O)c2ccccc2O)CC(C)(C)C1 (centres undefined) [Homosalate] | 113 |
| NC[C@@H]1O[C@@H](O[C@H]2[C@H](O)[C@@H](O[C@H]3O[C@H](CO)[C@@H](O)[C@H](N)[C@H]3O)[C@H](N)C[C@@H]2N)[C@@H](O)[C@H](O)[C@H]1O [Kanamycin A sulfate] | 93 |
| O=C(CCCN1CCN(c2ccccn2)CC1)c1ccc(F)cc1 [Azaperone] | 100 |
| C[C@H](CCC(=O)O)[C@H]1CC[C@H]2[C@@H]3[C@@H](O)C[C@@H]4C[C@H](O)CC[C@]4(C)[C@H]3CC[C@]12C [Urosiol] | 99 |
| C#C[C@]1(O)CC[C@H]2[C@@H]3CCC4=CCCC[C@@H]4[C@H]3CC[C@@]21C [Lynestrenol] | 93 |
| CC[C@@H]1C(=O)OC[C@@H]1Cc1cncn1C [Pilocarpine nitrate] | 108 |
| Cc1c(NC(=O)c2cccnc2)c(=O)n(-c2ccccc2)n1C [Nifenazone] | 92 |
| CS(=O)(=O)OCCCCOS(C)(=O)=O [Busulfan] | 109 |
| NS(=O)(=O)c1cc2c(cc1C(F)(F)F)NCNS2(=O)=O [Hydroflumethiazide] | 88 |
| CC(=O)NS(=O)(=O)c1ccc(N)cc1 [Sulfacetamide sodic hydrate] | 68 |
| Cc1cn([C@H]2C=C[C@@H](CO)O2)c(=O)[nH]c1=O [Stavudine] | 96 |
| C=CC1=C(C(=O)O)N2C(=O)[C@@H](NC(=O)/C(=N\O)c3csc(N)n3)[C@H]2SC1 [Cefdinir] | 16 |
| COc1cccc2c1C(=O)c1c(O)c3c(c(O)c1C2=O)C[C@@](O)(C(C)=O)C[C@@H]3O[C@H]1C[C@H](N)[C@H](O)[C@H](C)O1 [Daunorubicin hydrochloride] | 87 |

| SMILES | planktonic growth [%] |
| --- | --- |
| CC(=O)CC(c1ccccc1)c1c(O)c2ccccc2oc1=O (centres undefined) [Warfarin] | 98 |
| CO[C@@H]1[C@@H](O[C@@H]2O[C@H](C)[C@@H](O[C@H]3C[C@@](C)(O)[C@@H](OC(=O)CC(C)C)[C@H](C)O3)[C@H](N(C)C)[C@H]2O)[C@@H](CC=O)C[C@@H](C)[C@@H](O)/C=C/C=C/C[C@@H](C)OC(=O)C[C@H]1OC(C)=O [Josamycin] | 92 |
| CC(=O)OCC(=O)[C@@]12OC(C)(C)O[C@@H]1C[C@H]1[C@@H]3C[C@H](F)C4=CC(=O)C=C[C@]4(C)[C@@]3(F)[C@@H](O)C[C@@]12C [Fluocinonide] | 91 |
| c1ccc2c(CC3=NCCN3)cccc2c1 [Naphazoline hydrochloride] | 100 |
| CCN(CC)CC(=O)Nc1c(C)cccc1C [Lidocaine hydrochloride] | 110 |
| CCCCc1oc2ccc(NS(C)(=O)=O)cc2c1C(=O)c1ccc(OCCCN(CCCC)CCCC)cc1 [Dronedarone hydrochloride] | 103 |
| CCC1(c2ccccc2)C(=O)NCNC1=O [Primidone] | 94 |
| CC(=O)OC[C@H]1O[C@@H]([S-])[C@H](OC(C)=O)[C@@H](OC(C)=O)[C@@H]1OC(C)=O.CCP(CC)CC.[Au+] [Auranofin] | 62 |
| CN(C)CCC(c1ccc(Br)cc1)c1ccccn1 (centres undefined) [Brompheniramine maleate] | 92 |
| O=C1CC[C@@H](C(=O)N2CSC[C@H]2C(=O)O)N1 [Pidotimod] | 97 |
| c1ccc(-c2ccc(C(c3ccccc3)n3ccnc3)cc2)cc1 (centres undefined) [Bifonazole] | 100 |
| Oc1c(Cl)cc(Cl)c2cccnc12 [Chloroxine] | 9 |
| CCOc1nc2cccc(C(=O)O)c2n1Cc1ccc(-c2ccccc2-c2nnn[nH]2)cc1 [Candesartan] | 99 |
| C[C@@](Cc1ccc(O)c(O)c1)(NN)C(=O)O [Carbidopa] | 95 |
| Nc1ncnc2c1ncn2[C@@H]1O[C@H](CO)[C@@H](O)[C@@H]1O [Vidarabine] | 104 |
| CC(=O)N(CC(O)CO)c1c(I)c(C(=O)NCC(O)CO)c(I)c(C(=O)NCC(O)CO)c1I (centres undefined) [Iohexol] | 95 |
| CN(CCCCCCCCCCN(C)C(=O)Oc1cccc([N+](C)(C)C)c1)C(=O)Oc1cccc([N+](C)(C)C)c1 [Demecarium bromide] | 94 |
| COC(=O)Nc1nc2cc(Sc3ccccc3)ccc2[nH]1 [Fenbendazole] | 114 |
| CN1CCN(CC(=O)N2c3ccccc3C(=O)Nc3cccnc32)CC1 [Pirenzepine dihydrochloride] | 100 |
| Cn1c(=O)c2c(ncn2CC2OCCO2)n(C)c1=O [Doxofylline] | 98 |
| Nc1nc2c(ncn2COC(CO)CO)c(=O)[nH]1 [Ganciclovir] | 99 |
| CC=CC(=O)N(CC)c1ccccc1C [Crotamiton] | 106 |
| CNCCc1ccccn1 [Betahistine mesylate] | 90 |
| NCCCCCC(=O)O [Aminocaproic acid] | 105 |
| CN(C)C(=N)NC(=N)N [Metformin hydrochloride] | 104 |

| SMILES | planktonic growth [%] |
| --- | --- |
| CC(=O)O[C@]1(C(C)=O)CC[C@H]2[C@@H]3C=C(Cl)C4=CC(=O)CC[C@]4(C)[C@H]3CC[C@@]21C [Chlormadinone acetate] | 94 |
| CCN(CC)C(C)CN1c2ccccc2Sc2ccccc21 (centres undefined) [Ethopropazine hydrochloride] | 104 |
| CCCNC(=O)NS(=O)(=O)c1ccc(Cl)cc1 [Chlorpropamide] | 98 |
| Cc1cc(O)c(C(=O)N[C@@H](C(=O)N[C@@H]2C(=O)N3C(C(=O)O)=C(CSc4nnnn4C)CS[C@H]23)c2ccc(O)cc2)cn1 [Cefpiramide] | 18 |
| CO[C@H]1/C=C/O[C@@]2(C)Oc3c(C)c(O)c4c(O)c(c5c(nc6cc(C)ccn65)c4c3C2=O)NC(=O)/C(C)=C\C=C\[C@H](C)[C@H](O)[C@@H](C)[C@@H](O)[C@@H](C)[C@H](OC(C)=O)[C@@H]1C [Rifaximin] | 56 |
| O=C1[C@H]2CCCC[C@H]2C(=O)N1CCCCN1CCN(c2nsc3ccccc23)CC1 [Perospirone] | 99 |
| Clc1cccc(Cl)c1NC1=NCCN1 [Clonidine hydrochloride] | 100 |
| CCCOc1ccc2[nH]c(NC(=O)OC)nc2c1 [Oxibendazol] | 105 |
| Cc1[nH]cnc1CN1CCc2c(c3ccccc3n2C)C1=O [Alosetron hydrochloride] | 95 |
| O=C1NCC2(CCN(CCc3ccccc3)CC2)O1 [Fenspiride hydrochloride] | 89 |
| Clc1ccc2c(c1)CCc1cccnc1C2=C1CCNCC1 [Desloratadine] | 100 |
| CN(C)CCOC(c1ccccc1)c1ccccc1.Cn1c(=O)c2[nH]c(Cl)nc2n(C)c1=O [Dimenhydrinate] | 93 |
| CN(CCCN1c2ccccc2CCc2ccccc21)CC(=O)c1ccc(Cl)cc1 [Lofepramine] | 98 |
| CCN(CC)C(=O)c1ccc(O)c(OC)c1 [Ethamivan] | 95 |
| O=C(c1ccc(F)cc1)C1CCN(CCn2c(=O)[nH]c3ccccc3c2=O)CC1 [Ketanserin tartrate hydrate] | 99 |
| CC(C(O)c1ccc(O)cc1)N1CCC(Cc2ccccc2)CC1 (centres undefined) [Ifenprodil tartrate] | 106 |
| COC(=O)N/N=C/c1c[n+]([O-])c2ccccc2[n+]1[O-] [Carbadox] | 75 |
| CN(C(=O)CN(CCO)CC(=O)N(C)C(C)(C)Cc1ccccc1)C(C)(C)Cc1ccccc1 [Oxethazaine] | 100 |
| Cc1cc(C)nc(NS(=O)(=O)c2ccc(N)cc2)n1 [Sulfamethazine sodium salt] | 64 |
| CC1(C)O[C@@H]2C[C@H]3[C@@H]4C[C@H](F)C5=CC(=O)C=C[C@]5(C)[C@@]4(F)[C@@H](O)C[C@]3(C)[C@]2(C(=O)CO)O1 [Fluocinolone acetonide] | 98 |
| COc1cc(NS(=O)(=O)c2ccc(N)cc2)ncn1 [Sulfamonomethoxine] | 64 |
| CC(C)[C@H](N)C(=O)OCCOCn1cnc2c(=O)nc(N)[nH]c21 [Valacyclovir hydrochloride] | 97 |
| CN1CCN2c3ncccc3Cc3ccccc3C2C1 (centres undefined) [Mirtazapine] | 88 |
| CCCOc1ccccc1-c1nc2[nH]nnc2c(=O)[nH]1 [Zaprinast] | 89 |
